From PubChem BioAssay AID488969 (Vanderbilt High Throughput Screening Facility, 2010)
In all, about 110,000 compounds were measured (“z-score”: median about -0.1, highest 2% from about 2 on). Some of the results follow. Calls of active or inactive are those of the source.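 Rule for the calls: active = z-score in the third read window above 3 or below -3; inactive = the rest.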

biological target: Metabotropic glutamate receptor 8 (Rattus norvegicus) (UniProt P70579); test: mGluR8 Gi/Go-coupled signaling modulation – cell-based, rat, thallium flux, HTS, primary screen (AID 488969); settings: HEK293 rat mGluR8, GIRK (G protein-gated inwardly rectifying potassium channel) thallium flux, FluoZin2; at 10 µM; stronger effect = higher value; submaximal glutamate (EC20) added with thallium
UniProt P70579, sequence (P70579 whole entry, looked up): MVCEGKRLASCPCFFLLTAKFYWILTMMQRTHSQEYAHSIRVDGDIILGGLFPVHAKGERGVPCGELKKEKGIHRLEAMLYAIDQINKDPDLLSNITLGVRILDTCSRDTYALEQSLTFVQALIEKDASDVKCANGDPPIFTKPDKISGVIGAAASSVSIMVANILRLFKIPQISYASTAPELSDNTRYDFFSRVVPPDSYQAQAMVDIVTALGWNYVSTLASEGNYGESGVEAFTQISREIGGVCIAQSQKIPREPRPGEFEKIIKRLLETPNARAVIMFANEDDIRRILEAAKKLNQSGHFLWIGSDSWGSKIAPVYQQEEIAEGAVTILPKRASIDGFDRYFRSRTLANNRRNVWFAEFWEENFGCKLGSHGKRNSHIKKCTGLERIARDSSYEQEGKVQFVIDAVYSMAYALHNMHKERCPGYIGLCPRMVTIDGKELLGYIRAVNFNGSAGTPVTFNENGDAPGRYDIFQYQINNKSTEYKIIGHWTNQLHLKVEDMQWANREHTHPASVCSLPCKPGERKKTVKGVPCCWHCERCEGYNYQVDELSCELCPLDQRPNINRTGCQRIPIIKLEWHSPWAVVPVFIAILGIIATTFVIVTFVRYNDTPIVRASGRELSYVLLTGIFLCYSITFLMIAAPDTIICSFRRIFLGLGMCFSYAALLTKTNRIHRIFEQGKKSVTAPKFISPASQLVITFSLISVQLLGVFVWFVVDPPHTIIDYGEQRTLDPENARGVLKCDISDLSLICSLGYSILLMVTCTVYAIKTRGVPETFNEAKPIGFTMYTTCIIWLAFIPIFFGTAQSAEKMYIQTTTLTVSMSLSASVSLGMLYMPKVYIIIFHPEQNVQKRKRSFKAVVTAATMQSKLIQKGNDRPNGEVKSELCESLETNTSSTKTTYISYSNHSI

In the case of `CCCCOC(=S)NC(=O)c1sc2ccccc2c1Cl`, the z-score is reported as active: 17.3.
For `COc1ccc(-n2cc(-c3ccccc3)[nH]c2=S)cc1`, the z-score was active: 11.4.

Going from `Cc1cc(O)cc(O)c1C(=O)Cc1cnn(-c2ccccc2)c1` to `CN(Cc1ccccc1)C1CC(=O)N(c2ccc(C(=O)O)cc2)C1=O` (stereo not given), the z-score rises from -0.667 to 0.626.

Compared with `COc1cc(S(=O)(=O)N2CCN3CCCC3C2)ccc1-n1cnnn1` (stereo not given), `COc1cc(S(=O)(=O)N(Cc2ccc(C)cc2)Cc2ccco2)ccc1-n1cnnn1` is higher in z-score: 0.128 for the first, 0.205 for the second.

Compared with `COCCC(=O)NC12CC3CC(CC(C3)C1)C2`, `O=C(Nc1nccs1)C1CC2CCC1C2` (stereo not given) is higher in z-score: -0.301 for the first, -0.0817 for the second.

Compared with `CCN(CC(O)Cn1c2ccccc2c2ccccc21)S(=O)(=O)c1ccc(C)cc1` (stereo not given), `Cc1ccc(S(=O)(=O)N(CC(=O)N2CCc3ccccc3C2)c2cccc(Cl)c2)cc1` is lower in z-score: 0.0377 for the first, -0.189 for the second.

Going from `O=C(COc1ccccc1[N+](=O)[O-])N/N=C/c1cccs1` to `O=C(CCc1ccccc1)NNC(=O)COc1ccccc1`, the z-score rises from 0.59 to 0.641.

Compared with `Cn1c(=O)c2c(ncn2CC(COCc2ccccc2Cl)OCc2ccccc2Cl)n(C)c1=O` (stereo not given), `Cn1c(Oc2ccccc2NCc2cccc(Br)c2)cc(=O)n(C)c1=O` is lower in z-score: -0.242 for the first, -1.27 for the second.

Going from `Cc1ccc(S(=O)(=O)NC(=O)c2cc(C)n(-c3ccc(N(C)C)cc3)c2C)cc1` to `COC(=O)c1ccccc1NC(=O)CN(C)S(=O)(=O)c1cc(C)ccc1OC`, the z-score falls from 0.0357 to -0.0992.

First: COCCNC(=O)CS(=O)Cc1nc(-c2ccc(OC)cc2)oc1C (stereo not given)
Second: COc1ccc(-c2noc(CCC(=O)Nc3cccc(C)c3)n2)cc1
The z-score of the first is lower: -0.202 for the first, -0.128 for the second.

Compared with `CCn1c(=O)n(CC)c2cc(S(N)(=O)=O)ccc21`, `CCn1c(N)c(C(=O)Nc2ccccc2C(=O)OC)sc1=S` is higher in z-score: -0.511 for the first, 0.0436 for the second.

Compared with `Cc1cc(SC#N)cc(C)c1NC(=O)CCl`, `Cc1cc(C)c(C)c(C(=O)CSc2nnc(C)c(=O)[nH]2)c1C` is higher in z-score: -0.148 for the first, -0.142 for the second.

First: CCOc1ccc(/C=C(\C#N)C(=O)c2c(C)[nH]c3ccccc23)cc1OC
Second: C=CCN(c1ccccc1)S(=O)(=O)c1ccc(Cl)c(C(=O)OCC(=O)c2[nH]c(C)c(C(C)=O)c2C)c1
The z-score of the first is lower: -0.253 for the first, 0.731 for the second.

First: COc1ccc(OC)c(S(=O)(=O)N(C)CC(=O)N2CCN(c3ccccc3F)CC2)c1
Second: COc1ccc(C2/C(=C(/O)c3ccccc3)C(=O)C(=O)N2CCN2CCOCC2)c(OC)c1 (stereo not given)
The z-score of the first is lower: -2.54 for the first, -0.05 for the second.

First: COc1cc2c(cc1NCc1ccc3c(c1)OCO3)oc1ccccc12
Second: COc1ccccc1CN1C(=O)CN(C2CCCC2)C(=O)C1c1ccc(F)cc1 (stereo not given)
The z-score of the first is higher: 0.427 for the first, 0.21 for the second.

Compared with `O/N=C/c1ccc(OCC(O)COc2ccc(/C=N/O)cc2)cc1`, `CC(=O)c1ccc(OCC(O)CN2CCCC(C)C2)cc1` (stereo not given) is higher in z-score: -0.493 for the first, -0.0491 for the second.

Compared with `O=C(NCc1ccccn1)c1cc(-c2ccccc2Cl)nc2ccccc12`, `O=C(Cn1nnc(-c2ccccc2NC(=O)c2ccccc2F)n1)NCc1ccco1` is higher in z-score: -0.972 for the first, 0.668 for the second.

Compared with `CCS(=O)(=O)N1Cc2ccccc2CC1C(=O)OCC(=O)Nc1ccc(SC(F)F)cc1` (stereo not given), `O=C(O)c1ccccc1C(=O)NNc1ccc(F)cc1` is higher in z-score: -0.256 for the first, 0.269 for the second.

Going from `CCN1CCN(S(=O)(=O)c2ccc(Br)s2)CC1` to `O=C(CN1CCSCC1)N/N=C/c1ccc(F)cc1F`, the z-score rises from -0.028 to 0.276.

Going from `Nn1c(SCc2nc3ccccn3c2Br)nnc1-c1cccnc1` to `Cc1cc(NC(=O)CSc2nnc(C3COc4ccccc4O3)o2)no1` (stereo not given), the z-score falls from -0.0849 to -0.515.

Compared with `COc1ncnc(OC)c1NC(=O)c1ccc(F)cc1`, `CCOc1ccc(NC(=O)c2ccc(Br)o2)c([N+](=O)[O-])c1` is higher in z-score: -0.0697 for the first, -0.00177 for the second.

Compared with `Cc1cc(C)c(S(=O)(=O)Nc2nnc(C)s2)c(C)c1`, `COC(=O)c1sc(S(=O)(=O)NCc2ccccc2)c(C(=O)OC)c1C` is lower in z-score: -0.124 for the first, -0.852 for the second.

First: CCc1ccc(CNC(=O)CCc2nc(-c3cccs3)no2)cc1
Second: Cc1ccc(CSc2nnc(SCC(=O)N/N=C/C=C/c3ccco3)s2)cc1
The z-score of the first is higher: -0.0239 for the first, -0.159 for the second.

First: CN(C)S(=O)(=O)c1cccc(C(=O)Nc2ccccc2Cl)c1
Second: O=C(Nc1ccc(Cl)cn1)Nc1ccccc1F
The z-score of the first is lower: -0.373 for the first, 0.471 for the second.

Compared with `O=C(NCc1ccc2[nH]c3c(c2c1)CCCC3)N1CCOCC1`, `CCCc1cc(NCCCN2CCOCC2)n2c(nc3ccccc32)c1C#N` is lower in z-score: 0.806 for the first, -0.336 for the second.

Going from `FC(F)(F)c1cnc(Sc2nnc(-c3cccs3)n2CC2CCCO2)c(Cl)c1` (stereo not given) to `Cc1cc(C(=O)COc2ccc3ccc(=O)oc3c2)c(C)n1Cc1cccs1`, the z-score falls from 0.0854 to -0.421.

Going from `CC(C)NC(=O)NC(=O)COC(=O)CCCSc1nc2ccccc2s1` to `CCOC(=O)C1=C(CSc2nc3ccccc3s2)NC(=O)NC1c1ccc(OC)cc1` (stereo not given), the z-score falls from -0.112 to -0.273.

Compared with `CCCCCn1c(SCC(=O)OCC)nc2cc(C(=O)N3CCC(C(N)=O)CC3)ccc2c1=O`, `CS(=O)(=O)N(CC(=O)NC1CCCCC1)Cc1ccc(Cl)cc1` is higher in z-score: -0.507 for the first, -0.031 for the second.

Molecule `CC(C)Cc1nc2n[nH]c(N)c2c2c1COC(C)(C)C2` has a z-score of -0.0819.
